{"source": "PubChem BioAssay (NCI)", "note": "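A five-concentration, 48-hour dose response in 96-well plates underlies each endpoint, interpolated linearly between surrounding concentrations. Abbreviation: GI50, concentration required for 50% inhibition of growth. Definition used: TGI = concentration required for complete inhibition of growth.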 Peptide text beside a SMILES is read from it. * marks the point of attachment. Cbz = O=C(OCc1ccccc1)*", "data": [{"system": "NCI-H322M lung", "test": "growth of human tumour cells (NCI), 48 h", "units": {"GI50": "µM", "TGI": "µM"}, "values": [{"molecule": "COc1ccc(C(=O)/C=C/c2cc(-c3cc(OC)c(OC)c(OC)c3)n[nH]2)cc1OC", "GI50": 1.52, "TGI": 2.9}, {"molecule": "Oc1[nH]c2ccccc2c1N=NC(=S)Nc1cccc(Cl)c1", "TGI": 71.7}, {"molecule": "COC(=O)C1=C(O)C(C(=O)OC)[C@]2(O)[C@H](C(=O)OC)[C@H]1C[C@@H](c1ccc(C(F)(F)F)cc1)[C@H]2C(=O)OC", "note": "(some centres undefined)", "TGI": 12.8}, {"molecule": "Cc1ncc(C(=O)Nc2ccc(CN3CCN(C)CC3)c(C(F)(F)F)c2)cc1C#Cc1cnc(N)c2ccncc12", "GI50": 1.03, "TGI": 3.5}, {"molecule": "CC1(CCOCc2ccccc2)NC(=O)NC1=O", "note": "(centres undefined)", "TGI": "> 100"}, {"molecule": "N#Cc1c(N)nc2n[nH]c(N)c2c1-c1ccc(Cl)cc1", "TGI": "> 85.9"}, {"molecule": "Nc1nc(SC/C=C/c2ccccc2)c2[nH]cnc2n1", "TGI": "> 100"}, {"molecule": "CCn1c2ccccc2c2cc(NC(=O)Nc3ccc([N+](=O)[O-])cc3C)ccc21", "GI50": 16.8, "TGI": "> 100"}, {"molecule": "COC(=O)c1cc2ccc(N)nc2[nH]c1=O", "TGI": "> 100"}, {"molecule": "O=c1c(/C=C/c2c(O)ccc3ccccc23)nnc2sc(-c3cccc(Br)c3)nn12", "TGI": "> 100"}, {"molecule": "COc1cc(F)ccc1-c1ncnc(Nc2cccc(CS(C)(=N)=O)c2)n1", "note": "(centres undefined)", "GI50": 0.57, "TGI": "> 100"}, {"molecule": "O=C(CSc1nc2ccccc2nc1-c1ccccc1)Nc1ccc(F)cc1", "GI50": 30.5, "TGI": "> 100"}, {"molecule": "CSc1ncnc2c1ncn2CCC(=O)OC(C)(C)C", "TGI": "> 100"}, {"molecule": "O=C(N[C@@H](c1ccc(Cl)c(Cl)c1)C1CNC1)c1ccc2cnccc2c1", "GI50": 1.29, "TGI": 14}, {"molecule": "CN(C)CCCC12CCCCC1=Nc1ccccc12", "note": "(centres undefined)", "TGI": "> 100"}, {"molecule": "Cn1ccc(C(=O)NCCN(CCNC(=O)c2ccn(C)c(=O)c2O)CCNC(=O)c2cccc(=O)n2O)c(O)c1=O", "TGI": "> 100"}, {"molecule": "Clc1ccc2[nH]cc(-c3nnnn3-c3ccccc3)c2c1", "GI50": 12.5, "TGI": 59.2}, {"molecule": "Oc1cccnc1[Se]", "TGI": "> 100"}, {"molecule": "[Cl][Hg][c]1cc[c]([Hg][Cl])o1", "GI50": 17.1, "TGI": 49.4}, {"molecule": "O=C1C=CC(=O)c2cc3cc(CBr)ccc3cc21", "GI50": 24.1, "TGI": 52.6}, {"molecule": "N#C/C1=C(\\N)CCSSSC1", "TGI": "> 100"}, {"molecule": "COc1cc(-n2cc(-c3ccc(F)cc3)[nH]c2=O)cc(OC)c1OC", "GI50": "> 100", "TGI": "> 100"}, {"molecule": "COc1ccc(/C=C2\\N=C(SC)N(CN3CCOCC3)C2=O)cc1", "TGI": "> 100"}, {"molecule": "Cn1cc(NC(=O)Nc2cc(C(=O)Nc3cc(C(=O)Nc4ccc(S(=O)(=O)O)c5cc(S(=O)(=O)O)ccc45)n(C)c3)n(C)c2)cc1C(=O)Nc1cc(C(=O)Nc2ccc(S(=O)(=O)O)c3cc(S(=O)(=O)O)ccc23)n(C)c1", "TGI": "> 100"}, {"molecule": "CCC(/C=C/C1OC(=O)C=CC1C)=C\\C(C)C/C=C/C(C)=C/C(C)C(=O)C(C)C(O)C(C)C/C(C)=C/C(=O)O", "note": "(centres undefined)", "TGI": 65.4}, {"molecule": "O=C(Oc1ccccn1)c1cc2cc(CCl)ccc2oc1=O", "TGI": "> 100"}, {"molecule": "O=C(O)CCC(NC(=O)OCc1ccccc1)C(=O)NC(Cc1cnc[nH]1)C(=O)O", "note": "(stereo not drawn) (Cbz-Glu-His-OH; configuration not given here)", "TGI": "> 100"}, {"molecule": "CC1(C)N=C(N)N=C(N)N1c1ccc(CCc2ccccc2)cc1", "TGI": "> 100"}, {"molecule": "NC(=O)C(C(N)=O)=C(O)C(=O)/C=C(\\O)c1ccccc1", "TGI": "> 100"}, {"molecule": "COC(=O)c1ccccc1/C=C1\\Cc2ccc(C)c(C)c2C1=O", "TGI": "> 100"}, {"molecule": "CC(C)=CC[C@]12CCN[C@H]1N(S(=O)(=O)c1ccccc1)c1ccccc12", "TGI": 67.2}, {"molecule": "CN(C)CC1CCCC/C1=N/OC(=O)c1ccc(Cl)cc1", "note": "(centres undefined)", "TGI": "> 100"}, {"molecule": "c1ccc(CCNc2ccccn2)nc1", "TGI": "> 100"}, {"molecule": "O=C(/C=C/c1cccc2ccccc12)c1ccccc1Cl", "TGI": 31.7}, {"molecule": "CC12CP(=O)(c3ccccc3)CC1C2(Cl)Cl", "note": "(centres undefined)", "TGI": "> 100"}, {"molecule": "Cn1c(=O)c(-c2ccccc2)c(N=[N+]=[N-])c2ccccc21", "TGI": "> 100"}, {"molecule": "OCC1OC(c2nc(C3=NCCCN3)cs2)C(O)C1O", "note": "(centres undefined)", "TGI": "> 100"}, {"molecule": "O=c1cc(-c2cccc3ccccc23)[nH]c2ncccc12", "GI50": 0.0282, "TGI": "> 100"}, {"molecule": "COc1cc2c(c(OC)c1OC)-c1ccc(SC)c(=O)cc1C(NC=O)CC2", "note": "(centres undefined)", "TGI": 24.8}, {"molecule": "Cc1ccnc2[nH]c3ccccc3c(=O)c12", "TGI": "> 100"}, {"molecule": "CC1OC(OC2C(O)COC(OC3C(C)OC(OC4C(OC(=O)[C@]56CCC(C)(C)C[C@@H]5C5=CCC7[C@@]8(C)C[C@H](O)[C@H](OC9OC(CO)C(O)C(O)C9O)[C@@](C)(CO)[C@@H]8CC[C@@]7(C)[C@]5(C)CC6)OCC(O)C4O)C(O)C3OC3OCC(O)(CO)C3O)C2O)C(O)C(O)C1O", "note": "(some centres undefined)", "TGI": 17.7}, {"molecule": "CCOc1ccc(NC(=O)CC#N)cc1", "TGI": "> 100"}, {"molecule": "COc1cc(C2c3cc4c(cc3OC3(OC)COC(=O)C23)OCO4)cc(OC)c1OC(C)=O", "note": "(centres undefined)", "TGI": "> 100"}, {"molecule": "CN(C)CCCN1CCC2(CCC(C(C)(C)C)CC2)CC1", "TGI": 4.79}, {"molecule": "CCOC(=O)c1nnc2c(C(=O)OCC)c3ccccc3n2c1N", "TGI": 76.5}, {"molecule": "CCOC(=O)C12OC(CCC1=O)C(C(=O)OC)=C2C(=O)OC", "note": "(centres undefined)", "TGI": "> 10"}, {"molecule": "Cc1ccc(/C=C/C(=O)c2sc(-c3nc(C)c(C(=O)/C=C/c4ccc(C)cc4)s3)nc2C)cc1", "TGI": "> 100"}, {"molecule": "CCOC(=O)Nc1ccc(-c2nc(-c3cccc(OCCN4CCOCC4)c3)c(-c3ccnc(Br)c3)[nH]2)cc1", "GI50": 4.08, "TGI": "> 100"}, {"molecule": "CCC(C)COC(=O)c1ccc(N=Cc2ccc(C=Nc3ccc(C(=O)OCC(C)CC)cc3)cc2)cc1", "note": "(centres undefined)", "TGI": "> 100"}, {"molecule": "CC12CC(c3ccccc3O1)C(C(=O)Nc1ccc(Cl)cc1Cl)C(=O)N2", "note": "(centres undefined)", "TGI": 72}, {"molecule": "O=C1OCC2=C1C(c1cccc(Br)c1)c1cc3c(cc1N2CCO)CCC3", "note": "(centres undefined)", "GI50": 0.343, "TGI": 9.6}, {"molecule": "C/C(Cc1ccccc1)=N\\NC(N)=S", "TGI": "> 100"}, {"molecule": "COC1(OC)C(N(C)C)=C(Cl)C(=O)/C1=C/C=O", "TGI": "> 100"}, {"molecule": "S=c1sc2c(Cl)nc(Cl)nc2n1-c1ccccc1", "TGI": "> 100"}, {"molecule": "NCCNc1c2c(c(NCCN)c3[nH]ccc13)C(=O)c1ccccc1C2=O", "GI50": 0.0704, "TGI": 0.388}, {"molecule": "COc1cc2c(cc1OCCCNC(=O)c1cccc3c(=O)c4ccccc4[nH]c13)N=C[C@@H]1CCCN1C2=O", "GI50": 0.294, "TGI": 10.6}, {"molecule": "N#CCCN(C(=O)Nc1ccccc1)[C@H]1CCCC[C@@H]1N(C(=O)Nc1ccccc1)c1ccccc1", "TGI": "> 100"}, {"molecule": "CN1C2CCC1CC(=CCOC(c1ccc(F)cc1)c1ccc(F)cc1)C2", "TGI": 28.9}, {"molecule": "Cc1c(N=Nc2ccc(Cl)cc2)c(-c2ccccc2)n(C2OC(CO)C(O)C(O)C2O)c(=S)c1C#N", "note": "(centres undefined)", "TGI": 29.2}, {"molecule": "COc1cc(Cn2c(-c3ccccc3)c(Cl)c3c2-c2oncc2CC3)cc(OC)c1", "GI50": "> 100", "TGI": "> 100"}, {"molecule": "C=CCn1c(C)nc2ccc(Nc3nc(Nc4ccc5nc(C)n(CC=C)c5c4)c4ccccc4n3)cc21", "GI50": 1.71, "TGI": 3.24}, {"molecule": "Cn1c(=O)c2c(nc(Cc3ccccc3)n2CC(=O)O)n(C)c1=O", "TGI": "> 100"}]}]}
